The test system of data set [1] is human CD71-specific T cell hybridomas co-cultured with RAW264.7 cells. As to the kind of experiment: CD71 in vitro representation assay. Conditions: for in vitro antigen representation in the CD71 system: human liver gp96 samples, protein concentration of 75 μg/mL. The format is cell-based, murine (BALB/c).
Data set [2] deals with AH1 specific T-cells and RAW264.7 APC cells. An excerpt: Materials: the antigen presenting cell line, RAW264.7 (ATCC #TIB-71), was used in these experiments. It is an Abelson murine leukemia virus transformed macrophage cell line, which originated from the BALB/c strain (H-2d). Cytotoxic T Lymphocyte (CTLs): T cells specific for the CT26 tumor peptide were obtained from the University of Connecticut Medical Center. These T cells are specific for the AH1 epitope, amino acid sequence […]. These CTLs are re-stimulated on a weekly basis with the AH19 mer peptide plus irradiated BALB/c splenocytes. AIM V (Gibco-BRL) tissue culture medium was used. […] Proteases are undesirable in that they may digest elongated peptides to a smaller size able to surface load on MHC molecule inducing a CTL response independent of antigen representation. CT26 derived gp96 was purified from mouse tumors using both the buffer exchange and non-buffer exchange processes. AH1 19 mer ([…] ) alone was added as a negative control, as well as gp96 derived from normal mouse organs. AH1 9 mer ([…]), which can surface load and prime for CTL recognition was used as a positive control. An additional positive control included mouse derived gp96 complexed with AH1 19 mer peptide.
Preparation of CT26 Derived gp96: CT26 derived gp96 was purified from solid tumors. Mouse tumor was homogenized and clarified by centrifugation. The cell-free supernatant was subjected to a 50% ammonium sulfate precipitation. The resulting supernatant was further purified using ConA and DEAE chromatography. Protein was filter sterilized (0.22 μm), aliquoted and stored at −80±20° C. until use.
Preparation of gp96-AH119 mer complexes (complex positive control samples): AHI 19 merpeptide, dissolved in H2O, was added to gp96 at a 50:1 molar ratio. […] After incubation, samples were washed 4× with 5 ml PBS using a 30K MWCO Centricon spin filter unit (Millipore) and analyzed for protein concentration by the Bradford Assay. […]
After incubation, cells were pelleted by centrifugation at 1000 rpm for 5 minutes at 4° C. […] IFN—Y levels were measured by ELISA (R&D Systems). […]

With “human renal tumor gp96 (Bx): gp96-peptide complex from human renal tumors, buffer exchange step between Con A and DEAE columns, increased Con A”, the “in vitro antigen representation using the CD71 system” value in data set [1] (human renal tumor gp96, tumors A through D, versus homogenate-matched sample prepared without buffer exchange, IL-2 ELISA) is “higher in vitro representation activity”.
With “scFv gp96: human liver gp96 purified on gp96-specific scFv column, no con A column step; 0 ng/ug con A”, the “in vitro antigen representation in the CD71 system” value in data set [1] is “low in vitro activity similar to sample A”.
On to “sample #1: human liver gp96 produced with buffer exchange step; con A content 7.5 ng/ug total protein”, for which, in data set [1], the “in vitro antigen representation in the CD71 system” value is “more active in vitro”.
Take Concanavalin A [Con A]: in data set [1] (Con A at 7.5 ng/μg total protein, T cells without APCs), the “effect of Con A on T cells alone” value is “no effect on T cells alone”.
`CO[C@H]1O[C@H](CO)[C@@H](O)[C@H](O)[C@@H]1O` [α-MM, Methyl α-D-Mannopyranoside]: the “viabilities of APC or T cells” value in data set [2] is “does not affect the viabilities”. Moreover, the “effect on CT26 antigen representation” value in data set [2] (CT26-derived gp96 (Bx process) incubated 30 minutes with 50, 100 or 400 mM α-MM, diluted 1 in 5, INF-γ ELISA) is listed as “dose-dependent decrease”.

B1: CT26 gp96 (Bx): gp96 from murine CT26 tumor, prepared with buffer exchange step, increased amount of con A (protein, UniProt P08113 22-802, looked up)
Endoplasmin: DDEVDVDGTVEEDLGKSREGSRTDDEVVQREEEAIQLDGLNASQIRELREKSEKFAFQAEVNRMMKLIINSLYKNKEIFLRELISNASDALDKIRLISLTDENALAGNEELTVKIKCDKEKNLLHVTDTGVGMTREELVKNLGTIAKSGTSEFLNKMTEAQEDGQSTSELIGQFGVGFYSAFLVADKVIVTSKHNNDTQHIWESDSNEFSVIADPRGNTLGRGTTITLVLKEEASDYLELDTIKNLVRKYSQFINFPIYVWSSKTETVEEPLEEDEAAKEEKEESDDEAAVEEEEEEKKPKTKKVEKTVWDWELMNDIKPIWQRPSKEVEEDEYKAFYKSFSKESDDPMAYIHFTAEGEVTFKSILFVPTSAPRGLFDEYGSKKSDYIKLYVRRVFITDDFHDMMPKYLNFVKGVVDSDDLPLNVSRETLQQHKLLKVIRKKLVRKTLDMIKKIADEKYNDTFWKEFGTNIKLGVIEDHSNRTRLAKLLRFQSSHHSTDITSLDQYVERMKEKQDKIYFMAGSSRKEAESSPFVERLLKKGYEVIYLTEPVDEYCIQALPEFDGKRFQNVAKEGVKFDESEKTKESREATEKEFEPLLNWMKDKALKDKIEKAVVSQRLTESPCALVASQYGWSGNMERIMKAQAYQTGKDISTNYYASQKKTFEINPRHPLIRDMLRRIKEDEDDKTVMDLAVVLFETATLRSGYLLPDTKAYGDRIERMLRLSLNIDPEAQVEEEPEEEPEDTSEDAEDSEQDEGEEMDAGTEEEEEETEKESTEKDEL
modifications: CT26 tumor-derived; contains Con A
With B1, the “in vitro antigen representation using the CT26 system” value in data set [2] (CT26 tumor gp96, Preps A and B, versus matched sample without buffer exchange, IFN-γ ELISA) was “higher in vitro representation activity”.
